Source: the RNAGym collection of RNA variant scans (doi:10.7554/elife.90254)
Read counts are not given, so values of variants with three or more changes are uncertain.

B1: LINE1-mini (parent)
chain: GGCAGAGCUCAACACAGCGUGGCAAAGUGGCUGUGGCUAGACUGCC

Variants of: B1
Assay: self-cleavage, relative activity (ratio to wild type); higher = more cleavage; in vitro, sequencing; the parent is a self-cleaving ribozyme

Variant	self-cleavage
G7A U9G A14C C15G C45U	0.01
G7C C8A C13U G35U	0.5
G7C C8A G35C	0.05
G7A U43G C45A	0.09
G7C C10A A11C C15G	0.01
G7A U9G G27U G33U	0.09
G7C A25C U38C	0.05
G7C C8U G35U	0.15
G7C C8G U34A	0.03
G7C C8A C18G A25G	0.01
G7A U20A G22U A24G G44A	0.18
G7C A11C U32A	0.01
G7C A11U A14C C37A	0.04
G7C C8U G44U C46U	0.05
G7C C8G G17U A26U U28G	0.22
G7A U9A U34C	0.14
G7A U32A U43C	0.57
G7A U9A G29A A41C	0.4
G7C C8A C13A A14U G35U G40A U43C	0.41
G7C C8U A11C A16G G17U C46A	0.01
G7A U34A C45G	0.05
G7C A11U A12C A26G G44U	0.01
G7C A12C A16U	0.02
G7C A24G A26G G27U G30A G35A C46A	0.08

Variant	self-cleavage
G7C A24C G30A	0.09
G7C A14G A16C C37A A39C C46A	0.01
G7A U9G A25U G40U	0.08
G7A U28A A39C	0.22
G7C C8A A16G	0.14
G7A U28G G29U C31A G40C	0.07
G7A U32A G35U A41C	0.07
G7C A11C G30A C31G G35U	0.02
G7A U20G U32C	0.09
G7C C10A U20G G30A G33A C42G	0
G7C A16U G33U G35A	0.02
G7C A14U A16C C46U	0.04
G7C C8U U9A C42U	0.06
G7A U9G C18U	0.07
G7A U28C U34G A39G C42U	0.04
G7A U43A G44C	0.14
G7A U9C A11U A12C	0.01
G7C C8G G33A	0.09
G7A U9A G19U G27U U38A	0.05
G7A U9G G33U	0.04
G7A U9A G21A	0.3
G7C A12G C23U A25G C31A G36A	0.01
G7C C8U C37G	0.01
G7A U9G U28G G33C U38G	0.02

Variant	self-cleavage
G7C C8U G33A C42A C46A	0.28
G7C A26G G30A C37G U38A G40C	0.17
G7C A26C U28G G30A A39U	0.19
G7A U28A C45G	0.18
G7C A16G A25G U32G G33U	0
G7C C8U G19C U32C C42A	0.09
G7A U9C C37A U38A	0.07
G7A U20A C37A	0.02
G7C A14U G27U G40U	0.11
G7C C8U G19A	0.13
G7A U9A G19A	0.4
G7C A11G C31A C42G	0.01
G7C A24U G30C U34G	0.07
G7C C8U G17A U38C	0.15
G7C C8A A16U G40U	0.45
G7C A11G G27U A41U	0.01
G7C A11C C31A G35U	0.02
G7C A11G C18G C37A	0.01
G7C A25U U34A C45U	0.12
G7C A11U A25C	0.03
G7A U9A G30C G40A	0.38
G7A U28G G30C U43A	0.02
G7C A16U G35A	0.11
G7C C8A C23A A25C U34C	0.28

Variant	self-cleavage
G7C C8U C23U G29C	0.11
G7C A16U G30C A41U	0.17
G7C A12U G29A	0.04
G7C A14U A39G G40A	0.07
G7A U9C G27A C37U C45U	0.07
G7C C8U U9A C23U G33A	0.11
G7A U28C A39C	0.04
G7C A26G G40A C45U	0.05
G7A U20G A26U U34C	0.11
G7C A16C U32G G33U A39C	0.01
G7C A25G U28C	0.03
G7C A11G A24C C31A G33U A41G	0.01
G7C A11G C15G G17U A25U	0.01
G7C A11C G22A A25U G27A G35U G36C A39U	0
G7A U20C A26G	0.05
G7A U28A U34A U38G	0.08
G7C A12U C15G G22C A39G C42U	0.02
G7C A12C C15U G30U C45U	0.03
G7C A11G U20A C23U A41C	0.02
G7C A26C U28G	0.02
G7A U9C A25U	0.06
G7C C8U U38A	0.04
G7A U28A G30A	0.16
G7C A16C G30U C31A	0.05

Variant	self-cleavage
G7C A16C G17A A39C	0.17
G7C A11U A26C	0.07
G7C A11C G22C A24G G35C	0.01
G7C A24G A26U	0.17
G7C C8U A12C A26C	0.02
G7C A11G A16U A25C	0.02
G7A U20A G35A	0.15
G7A U20C G29A	0.08
G7C A16C G29U G44C	0.03
G7C A11C G29C U32C G40A C46U	0
G7C A12C G33C	0.06
G7A U20A G21A G22U	0
G7C A16U G44C	0.03
G7C C10A A14G G17U U20G G22U	0.02
G7A U32A C42G	0.03
G7A U9G A12G C45U	0.01
G7C A25G C31A U38A	0.03
G7C C10A G21U A24G U28A C46A	0.01
G7A U20C C37A	0.07
G7C A16U G19A C45U	0.02
G7C A14U A26U C37U	0.02
G7C A16G G27U U43A	0.12
G7C A39G C42U	0.01
G7C A11C A24G A25G	0.03

Variant	self-cleavage
G7A U9G C46A	0.07
G7C C10A C15U U34G	0.01
G7C A11C G27U	0.01
G7C A14U U20C A39G G40A	0.05
G7A U9G G22A G44A	0.06
G7C A12G U28G	0
G7C A26U A39G	0.06
G7C A12C C13U C15A	0.04
G7C C8A U32A U43C	0.09
G7A U20A C23U	0.05
G7A U34A A41U	0.17
G7A U20G C31A C45U	0.15
G7C C8G G22U	0.39
G7C A11U A24G	0.03
G7C C8A C13A U43A	0.36
G7A U9A G27C	0.17
G7C C8G A11C A26G A41U C46G	0.02
G7C C8G U9A G44U	0.14
G7A U28C C45A	0.04
G7A U9C A11G U34G	0.04
G7C C8G G19U C23G G35A	0.33
G7C A11G C13A C46A	0.04
G7C A25U U32G U34G A39C	0.05
G7C A12G C23U A24U G29A G36C	0.09

Variant	self-cleavage
G7A U34A G35C G36U G44A	0.07
G7C A26U C42A	0.08
G7A U9C G40U	0.02
G7C A16U G17A U43G C45A	0.09
G7C A16G G35U	0.01
G7A U32C G35C U43A	0.03
G7A U20A G22C A26G G27C C37A	0.01
G7A U28G A41G	0.05
G7C A26G G29U G44U	0.43
G7A U28A U38G	0.01
G7C A25U A41C	0.07
G7C C8G U9C C18A	0.06
G7C A25C C37U G40C	0.03
G7C C10A U20C G21U	0.01
G7C C8G G29A G33C	0.04
G7A U9C C31G	0.04
G7C C10A A12U G17A	0.03
G7C A41C U43C	0.07
G7C C8A A11C A25C U28A C45G	0.01
G7C A24C G44A	0.04
G7A U9G G22C G33A	0.05
G7C A12U U38A	0.09
G7C A12G A16C C42A	0.01
